The target of this test is BiKE:E5C1. The experiment in a line: BLI. A general note: In BLI a coated tip is dipped into the sample, and binding shifts an interference pattern.

Here are results for one molecule from article PMC9852913 (2022).

By Kd is commonly meant the free concentration of one partner at which half of the binding sites on the other are occupied at equilibrium, for simple one-to-one binding. The koff is a measure of how fast the partners let go of each other. A lower koff goes with a long-lived complex.

BiKE:E5C1, sequence (P08637 17-254): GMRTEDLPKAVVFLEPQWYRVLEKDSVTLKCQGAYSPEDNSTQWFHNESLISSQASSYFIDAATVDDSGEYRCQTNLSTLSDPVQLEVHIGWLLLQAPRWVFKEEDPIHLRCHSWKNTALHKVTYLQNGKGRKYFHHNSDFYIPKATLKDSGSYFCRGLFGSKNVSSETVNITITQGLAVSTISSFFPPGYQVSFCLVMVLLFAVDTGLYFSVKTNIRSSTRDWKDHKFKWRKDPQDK

B1: CD16a antigen (biotinylated CD16a, F176) (receptor)
chain: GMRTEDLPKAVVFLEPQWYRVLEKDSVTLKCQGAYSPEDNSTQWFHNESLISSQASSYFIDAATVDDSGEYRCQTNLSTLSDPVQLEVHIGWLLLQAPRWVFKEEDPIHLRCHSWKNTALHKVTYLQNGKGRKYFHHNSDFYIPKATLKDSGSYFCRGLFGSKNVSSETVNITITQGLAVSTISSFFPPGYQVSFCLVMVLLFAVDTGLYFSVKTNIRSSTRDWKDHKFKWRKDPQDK
modifications: biotin
B1 gave a Kd of 2.7 nM and a koff of 0.00051 s⁻¹.
